# Recombinant human monoclonal antibodies (heavy:light variable regions). ELISA EC50 on the named antigen, from 10 µg/ml down; IC50 / IC90 against spike pseudovirus on 293T-ACE2 cells, 48 h; lower = stronger. Calls: IC50 above 1,000 ng/ml = non-neutralizing; EC50 above 1,000 ng/ml = non-binder. The source prints 1000 for neutralization that was not reached; it is given as >1000 ng/ml. Only binders of the Wuhan-Hu-1 domain have neutralization values.
# B1: B2126 (protein)
# chain 1: QVQLQESGPGLVKPSQTLSLTCTVSGASISNGGYYWSWIRQHRGQGLEWIGYIYYSGDTYYNPSLKSRLIMSVDTSKNQFSLELSSVTAADTALYYCARIRTPLTRDTEGEHAFDMWGQGTMVTVSS
# chain 2: DIQLTQSPSSLSASVGDRVTITCRASQSISSYLNWYQQKPGKAPKLLIYAASSLESGVPSRFSGSGSGTEFTLTISSLQREDFATYYCQQSHSILFTFGQGTRLEIK
# B2: B2124 (protein)
# chain 1: EVQLVQSGAVVKKPGESLKISCQGSGYSFPYYWIGWVRQMPGKGLEYMGVVYPSDSDTKYSPSFQGQVTISADKSISTAYLQWNGLKASDTAMYYCARIDPHDCSGGACFPAGFDPWGQGTLVTVSS
# chain 2: DIQMTQSPSSLSASVGDRVTITCQASQDIGNYLNWYQQKPGKAPKLLIYDASNLETGVPSRFSGSGSGTDFTFTISSLQPEDIATYYCQQYDNLLLTFGPGTKVDIK
# B3: B2018 (protein)
# chain 1: QVQLVQSGAEVKKPGSSVKVSCKTSGGTFSSYAISWVRQAPGQGLEWMGGIIPRFGIPNYVQKFQGRVTITADKSTSTAYMELASLRSEDTAVYYCARVGDRSTVPYFDYWGQGILVTVSS
# chain 2: EIVMTQSPATLSVSPGERATLSCRASQSVSSDLAWYQQKPGQAPRLLISGASTRATGIPARFSGSGSGTEFTLTISSLQSEDFAVYYCQQYNNWPITFGQGTRLEIK
# B4: B2123 (protein)
# chain 1: QLVQSGPEIKKPGTSVKVSCKASGFTFSNSAVQWVRQARGQHLEWIGWIVVGSGDPNYAQKFQERVTLTRDMSTGTAYMELSSLRSEDTAFYYCATNNCSRTICSDGFDIWGQGTMVTVSS
# chain 2: DIQLTQSPSSLSASVGDRVTITCRASQSIRSYLNWYQQKPGKAPKLLIYVASSLQTGVPSRFSGSGSGTEFTLTISSLQPEDFATYYCQQSYSTPPWTFGQGTKVEIK
# B5: B2008 (protein)
# chain 1: B4 chain 1
# chain 2: DIQMTQSPSTLSASVGDRVTITCRASQSLTSWLAWYQQKPGKAPNLLIYDASILDSGVPSRFSGSGSGTEFTLTISSLQPQDFATYYCQQYKGYPWTFGQGTKVEIK
# B6: B2016 (protein)
# chain 1: VQLVESGGGVVQPGRSLRLSCAASGFTFSNYAMHWVRQTPGKGLEWVAVISYDGSKKYYGDSVKGRFTISRDNSKNTLYLEMNSLRAEDTAVYYCAKAEGPYGSGTSHYYYGMDVWGQGNTVTVSS
# chain 2: DIQLTQSPSSLSASVGDRVTITCRASQSISTYLHWYQQKPGKAPNLLIYAASSLQSGVPSRFRGSGSGADFTLTISSLQPEDFATYYCQQSYSTPLTFGGGTKVEIK
# B7: B2020 (protein)
# chain 1: VQLVESGGGVVQPGTSVRLSCAASRFTFSSYGMHWVRQAPGKGLEWVAGISFHGSNKYYADSVKGRFNISRDNSKNTLSLQMNSLRTEDTAVYYCAKDRGGGILRFLEWLSDYDCGLDVWGQGTTVTVSS
# chain 2: DIQMTQSPSSLSASVGDRVTITCRASQNINRYLNWYQQKPGEAPKLLIYAASSLQSGVPSRFSGSGSGTDFALTISSLQPEDFANYYCQQTYRTPPSTFGQGTRLEIK
# B8: B2120 (protein)
# chain 1: QLQLQESGPGLVKPSETLSLTCTVSGGSVSSYLYYWGWIRQPPGKGLEWIGTIFYSGTTYYNVSLKRRGTISIDTSKNQFSLRLSSVTAADTAVYYCARLGGSIGPHLAAAGTPDYWGQGTLVTVSS
# chain 2: IRMTQSPSSLSASVGDRVTITCQASQDISNYLNWYQQKPGKAPKLLIYDASNLETGVPSRFSGSGSGTDFTFTISSLQREDVATYYCQQYDNLPLTFGGGTKVEIK
# B9: B2121 (protein)
# chain 1: QLQLQESGPGLVKPSETLSLTCSLSGGSISSSSYYWGWIRQPPGKGLEWIGGIYYSANTLYNPSLKSRVSISVDTSKNQFSLKVRSVTAADTAVYYCARFHCTTNRCYGDDWYFDLWGRGTLVTVSS
# chain 2: SYELTQPPLVSVSPGQTARITCSGDAFPNQYAYWYQQKSGQAPVLVIYKDSERPSGIPERFSGSSSGATVTLTISGVQAEDEADYYCQTADSRGTLFGGGTKLTVL
# B10: B2021 (protein)
# chain 1: QVQLQESGPGLVKPSQTLSLTCTVSGGSISSYGYYWSWIRQHPEKGLEWIGHIYYSGSTYYNPSLKSRVTISVDTSKNQFSLKLSSLTAADTAVYYCARDPLAGRGQFDRWGQGTLVTVSS
# chain 2: IRMTQSPSSLSASVGDRVSITCQASQDISNFLNWYQQKPGQAPKLLIYDASSLETGVPSRFSGSGSGTHFTFTISSLQPEDIATYYCQQFDDVPPSFGQGTKLEIK
# B11: B2019 (protein)
# chain 1: EVQLVESGGGLVQPGRSLRLSCAASGFNIADYGMHWVRQAPGKGLEWVAGISWNSGRIGYADSVKGRFTISRDNAKKSLSLQMNSLRAEDTALYYCAKTYCGGDCYSLLLYDPLDIWGQGTMVTVSS
# chain 2: DIQLTQSPSSLSASVGDRVTITCRASQDISNDLAWYQQKPGKVPKLLIYGASTLQSGVPSRFSGSGSGTDFTLTISSLQPEDVATYYCQQYNSGGTFGPGTKVDIK
# B12: B2122 (protein)
# chain 1: VQLVESGGGVVQPGRSLRLSCAASGFTFSDYGMHWVRQAPGKGLEWLAVISSDGSLKYFDDSVKGRFTISRDNSKNTLYLQMNSLRVEDTAVYYCAKDRDLESFLLLDYWGQGTLVTVSS
# chain 2: DIQLTQSPSSLSASVGDRVTITCRASQSIATYLNWYQQKPGKAPKLLIYAASSLQSGVPSRFSGSGSGRDFTLTISGLQREDFATYYCQQSYSTPPITFGQGTRLEIK
# B13: B2017 (protein)
# chain 1: QVQLVQSGAEVKKPGSSVKVSCKASGGIFSSYAISWVRQAPGQGLEWMGGIIPIFGTTTYAQKFQGRVTITADESTTTAYMELSSLRSEDTAVYYCASGPPTYNDFWSGYSFDYWGQGTLVTVSS
# chain 2: EIVLTQSPGTLSLSPGERATLSCRASQSVNSDFLAWYQQIPGQAPRLLIYGASNRATGIPEKFSGSGSGTDFTLTISRLEPEDFAVYYCQQYGNSPFTFGPGTKVDIK
# B14: B2015 (protein)
# chain 1: QVQLVQSGAEVKKPGSSVKVSCKASGGTLSSTAISWVRQAPGQGPEWMGRIIPIFGTTDYAPNFQGRVTITADESTSTVYMELSSLRFQDTALYYCARDHETAPLYGMDVWGQGTTVTVSS
# chain 2: DIQLTQSPSSLSASVGDRVTITCRASQSISRFLNWYQQKPGKAPELLIYATSTLQDGVPPRFSGSGSGTDFTLTISSLQPEDFATYYCQQSYSIPPITFGQGTRLEIK
# What was measured:
# [1] = target: SARS-CoV-2 Wuhan-Hu-1 spike pseudovirus; experiment: pseudovirus neutralization IC50; higher = weaker neutralization
# Protocol: (§1)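 Single-round luciferase reporter pseudovirus mixed with antibody dilutions and put on 293T-ACE2 cells for 48 h; signal relative to no-antibody wells, four-parameter fit.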
# [2] = target: SARS-CoV-2 Wuhan-Hu-1 spike pseudovirus; experiment: pseudovirus neutralization IC90; higher = weaker neutralization
# Protocol: as §1
# [3] = target: SARS-CoV-2 Delta (B.1.617.2) spike RBD; experiment: ELISA binding EC50; higher = weaker binding; ELISA of recombinant human antibody on coated antigen, from 10 µg/ml in fourfold dilutions; four-parameter fit.
# [4] = target: SARS-CoV-2 Omicron BA.1 spike protein; experiment: as above
# [5] = target: SARS-CoV-2 Wuhan-Hu-1 spike receptor-binding domain; experiment: as above
Binder,pseudovirus neutralization IC50 [1],pseudovirus neutralization IC90 [2],ELISA binding EC50 [3],ELISA binding EC50 [4],ELISA binding EC50 [5]
B1,0.00599 µg/mL,0.0303 µg/mL,0.00261 µg/mL,0.048 µg/mL,0.0025 µg/mL
B2,0.0104 µg/mL,0.395 µg/mL,0.0103 µg/mL,0.0117 µg/mL,0.00249 µg/mL
B3,0.0215 µg/mL,0.117 µg/mL,> 1 µg/mL,> 1 µg/mL,0.0027 µg/mL
B4,> 1 µg/mL,> 1 µg/mL,> 1 µg/mL,> 1 µg/mL,0.0122 µg/mL
B5,> 1 µg/mL,> 1 µg/mL,> 1 µg/mL,> 1 µg/mL,0.226 µg/mL
B6,0.0184 µg/mL,0.127 µg/mL,> 1 µg/mL,> 1 µg/mL,0.00123 µg/mL
B7,> 1 µg/mL,> 1 µg/mL,> 1 µg/mL,> 1 µg/mL,0.01 µg/mL
B8,> 1 µg/mL,> 1 µg/mL,0.0136 µg/mL,0.00536 µg/mL,0.00412 µg/mL
B9,> 1 µg/mL,> 1 µg/mL,0.00711 µg/mL,0.119 µg/mL,0.0023 µg/mL
B10,> 1 µg/mL,> 1 µg/mL,0.0103 µg/mL,0.00434 µg/mL,0.00235 µg/mL
B11,0.0366 µg/mL,0.9 µg/mL,0.0072 µg/mL,0.0162 µg/mL,0.00234 µg/mL
B12,0.67 µg/mL,> 1 µg/mL,0.0228 µg/mL,0.0931 µg/mL,0.00132 µg/mL
B13,> 1 µg/mL,> 1 µg/mL,0.0323 µg/mL,0.0081 µg/mL,0.00469 µg/mL
B14,0.124 µg/mL,> 1 µg/mL,0.00589 µg/mL,0.00575 µg/mL,0.00378 µg/mL

# — the supplement of paper PMC9513381
